Test results reported in article PMC10433963 (2023).

Molecular target: MSMEI_3879 (recombinant) (M. smegmatis, UniProt I7G417)
Test: MST; 1 mM ATPγS; Kapp from Hill fit

B1: ^H7-SUMOClpC1^FLAG (recombinant ClpC1) (enzyme)
chain: not shown
Kd: 6.4 µM
